# In the supplement of paper PMC8728848:
# This is one part of the list.
# B1: MGL (Homo sapiens), Q8IUN9 (protein)
# chain: MTRTYENFQYLENKVKVQGFKNGPLPLQSLLQRLCSGPCHLLLSLGLGLLLLVIICVVGFQNSKFQRDLVTLRTDFSNFTSNTVAEIQALTSQGSSLEETIASLKAEVEGFKQERQAGVSELQEHTTQKAHLGHCPHCPSVCVPVHSEMLLRVQQLVQDLKKLTCQVATLNNNASTEGTCCPVNWVEHQDSCYWFSHSGMSWAEAEKYCQLKNAHLVVINSREEQNFVQKYLGSAYTWMGLSDPEGAWKWVDGTDYATGFQNWKPGQPDDWQGHGLGGGEDCAHFHPDGRWNDDVCQRPYHWVCEAGLGQTSQESH
# Columns and labels:
# Test in all cases: glycan array binding signal (z-score within array); higher = stronger binding
# Details in all cases: glycan notation: IUPAC condensed, linker removed
# [1] = molecular target: Fuc(a1-2)[GalNAc(a1-3)]Gal(b1-3)GlcNAc(b1-3)GalNAc
# In short: (§1)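 The binding signal is a Z-score computed within each array. Data were drawn from 3228 arrays in the Consortium for Functional Glycomics database, restricted to those with a known protein sequence. Scores were averaged over arrays of the same protein sequence at different concentrations or buffers, and over linkers, and negative values can be taken as non-binding.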
# [2] = molecular target: Fuc(a1-2)[GalNAc(a1-3)]Gal(b1-3)GlcNAc(b1-6)GalNAc
# In short: as §1
# [3] = molecular target: Fuc(a1-2)[GalNAc(a1-3)]Gal(b1-4)Glc
# In short: as §1
# [4] = molecular target: Fuc(a1-2)[GalNAc(a1-3)]Gal(b1-4)GlcNAc
# In short: as §1
# [5] = molecular target: Fuc(a1-2)[GalNAc(a1-3)]Gal(b1-4)GlcNAc(b1-2)Man
# In short: as §1
# [6] = molecular target: Fuc(a1-2)[GalNAc(a1-3)]Gal(b1-4)GlcNAc(b1-2)Man(a1-3)[Fuc(a1-2)[GalNAc(a1-3)]Gal(b1-4)GlcNAc(b1-2)Man(a1-6)]Man(b1-4)GlcNAc(b1-4)GlcNAc
# In short: as §1
# [7] = molecular target: Fuc(a1-2)[GalNAc(a1-3)]Gal(b1-4)GlcNAc(b1-2)Man(a1-3)[Fuc(a1-2)[GalNAc(a1-3)]Gal(b1-4)GlcNAc(b1-2)Man(a1-6)]Man(b1-4)GlcNAc(b1-4)[Fuc(a1-6)]GlcNAc
# In short: as §1
# [8] = molecular target: Fuc(a1-2)[GalNAc(a1-3)]Gal(b1-4)GlcNAc(b1-3)Gal(b1-4)GlcNAc
# In short: as §1
# [9] = molecular target: Fuc(a1-2)[GalNAc(a1-3)]Gal(b1-4)GlcNAc(b1-3)Gal(b1-4)GlcNAc(b1-3)Gal(b1-4)GlcNAc
# In short: as §1
# [10] = molecular target: Fuc(a1-2)[GalNAc(a1-3)]Gal(b1-4)GlcNAc(b1-3)GalNAc
# In short: as §1
# [11] = molecular target: Fuc(a1-2)[GalNAc(a1-3)]Gal(b1-4)GlcNAc(b1-3)[Fuc(a1-2)[GalNAc(a1-3)]Gal(b1-4)GlcNAc(b1-6)]GalNAc
# In short: as §1
# [12] = molecular target: Fuc(a1-2)[GalNAc(a1-3)]Gal(b1-4)GlcNAc(b1-6)GalNAc
# In short: as §1
# [13] = molecular target: Fuc(a1-2)[GalNAc(a1-3)]Gal(b1-4)[Fuc(a1-3)]GlcNAc
# In short: as §1
# [14] = molecular target: Fuc(a1-2)[GalNAc(a1-3)]Gal(b1-4)[Fuc(a1-3)]GlcNAc(b1-3)GalNAc
# In short: as §1
# [15] = molecular target: Fuc(a1-2)[GalNAc(a1-4)]Gal(b1-4)GlcNAc
# In short: as §1
# [16] = molecular target: Fuc(a1-2)[GalNAc(b1-3)]Gal
# In short: as §1
# Fuc(a1-3)GlcNAc = molecular target: Fuc(a1-3)GlcNAc
# In short: as §1
# [17] = molecular target: Fuc(a1-3)[Gal(b1-4)]Glc6S
# In short: as §1
# [18] = molecular target: Fuc(a1-3)[Gal(b1-4)]GlcNAc
# In short: as §1
# [19] = molecular target: Fuc(a1-3)[Gal(b1-4)]GlcNAc(b1-2)Man
# In short: as §1
# [20] = molecular target: Fuc(a1-3)[Gal(b1-4)]GlcNAc(b1-2)Man(a1-3)[Fuc(a1-3)[Gal(b1-4)]GlcNAc(b1-2)Man(a1-6)]Man(b1-4)GlcNAc(b1-4)GlcNAc
# In short: as §1
# [21] = molecular target: Fuc(a1-3)[Gal(b1-4)]GlcNAc(b1-2)Man(a1-3)[Fuc(a1-3)[Gal(b1-4)]GlcNAc(b1-2)Man(a1-6)]Man(b1-4)GlcNAc(b1-4)[Fuc(a1-6)]GlcNAc
# In short: as §1
# [22] = molecular target: Fuc(a1-3)[Gal(b1-4)]GlcNAc(b1-3)Gal(b1-3)[Fuc(a1-4)]GlcNAc
# In short: as §1
# [23] = molecular target: Fuc(a1-3)[Gal(b1-4)]GlcNAc(b1-3)Gal(b1-4)[Fuc(a1-3)]GlcNAc
# In short: as §1
# [24] = molecular target: Fuc(a1-3)[Gal(b1-4)]GlcNAc(b1-3)Gal(b1-4)[Fuc(a1-3)]GlcNAc(b1-3)Gal(b1-4)[Fuc(a1-3)]GlcNAc
# In short: as §1
# [25] = molecular target: Fuc(a1-3)[Gal(b1-4)]GlcNAc(b1-3)GalNAc
# In short: as §1
# [26] = molecular target: Fuc(a1-3)[Gal(b1-4)]GlcNAc(b1-6)GalNAc
# In short: as §1
# [27] = molecular target: Fuc(a1-3)[Gal(b1-4)]GlcNAc(b1-6)[Gal(b1-3)GlcNAc(b1-3)]Gal(b1-4)Glc
# In short: as §1
# [28] = molecular target: Fuc(a1-3)[Gal(b1-4)]GlcNAc6S
# In short: as §1
# [29] = molecular target: Fuc(a1-3)[Gal3S(b1-4)]Glc
# In short: as §1
# [30] = molecular target: Fuc(a1-3)[Gal3S(b1-4)]GlcNAc
# In short: as §1
# [31] = molecular target: Fuc(a1-3)[Gal3S(b1-4)]GlcNAc6S
# In short: as §1
# [32] = molecular target: Fuc(a1-3)[GalNAc(b1-4)]GlcNAc
# In short: as §1
# [33] = molecular target: Fuc(a1-3)[GalNAc(b1-4)]GlcNAc6S
# In short: as §1
# Fuc(a1-4)GlcNAc = molecular target: Fuc(a1-4)GlcNAc
# In short: as §1
# Fuc(b1-3)GlcNAc = molecular target: Fuc(b1-3)GlcNAc
# In short: as §1
# Gal(a1-2)Gal = molecular target: Gal(a1-2)Gal
# In short: as §1
binder,measurement,setting,value
B1,glycan array binding signal (z-score),[1],-0.112
same,glycan array binding signal (z-score),[2],3.6
same,glycan array binding signal (z-score),[3],0.112
same,glycan array binding signal (z-score),[4],0.418
same,glycan array binding signal (z-score),[5],0.364
same,glycan array binding signal (z-score),[6],0.643
same,glycan array binding signal (z-score),[7],-0.116
same,glycan array binding signal (z-score),[8],0.29
same,glycan array binding signal (z-score),[9],0.111
same,glycan array binding signal (z-score),[10],-0.157
same,glycan array binding signal (z-score),[11],0.106
same,glycan array binding signal (z-score),[12],4.98
same,glycan array binding signal (z-score),[13],-0.135
same,glycan array binding signal (z-score),[14],-0.242
same,glycan array binding signal (z-score),[15],3.39
same,glycan array binding signal (z-score),[16],4.3
same,glycan array binding signal (z-score),Fuc(a1-3)GlcNAc,-0.243
same,glycan array binding signal (z-score),[17],-0.238
same,glycan array binding signal (z-score),[18],-0.232
same,glycan array binding signal (z-score),[19],-0.246
same,glycan array binding signal (z-score),[20],-0.247
same,glycan array binding signal (z-score),[21],-0.24
same,glycan array binding signal (z-score),[22],-0.248
same,glycan array binding signal (z-score),[23],-0.233
same,glycan array binding signal (z-score),[24],-0.248
same,glycan array binding signal (z-score),[25],-0.241
same,glycan array binding signal (z-score),[26],0.456
same,glycan array binding signal (z-score),[27],-0.251
same,glycan array binding signal (z-score),[28],-0.227
same,glycan array binding signal (z-score),[29],-0.241
same,glycan array binding signal (z-score),[30],-0.233
same,glycan array binding signal (z-score),[31],-0.245
same,glycan array binding signal (z-score),[32],2.54
same,glycan array binding signal (z-score),[33],1.94
same,glycan array binding signal (z-score),Fuc(a1-4)GlcNAc,-0.242
same,glycan array binding signal (z-score),Fuc(b1-3)GlcNAc,-0.242
same,glycan array binding signal (z-score),Gal(a1-2)Gal,-0.25
